According to US20130109714A1, “NEURODEGENERATIVE DISEASE THERAPEUTIC AGENT” (National University Corporation Hokkaido University, priority 2010, published 2013):

Key:
[1] = system: human dopamine-producing cell SH-SY5Y
Procedure: To a culture solution of human dopamine-producing cell SH-SY5Y, 1 μM DJ-1 bound compound (No. 23) dissolved in 0.01% DMSO was administered for 20 h, then the cultured solution was treated with 50 μM 6-OHDA (6-hydroxydopamine) for 24 h or with 125 μM 6-OHDA for 1 h; and the ratio of cell death was investigated by MTT assay. For comparison, a control (−) without addition of the DJ-1 bound compound and a control (DMSO) with addition of only DMSO, and a sample with addition of dopamine were used and subjected to the same method.

[2] = system: human dopamine-producing cell SH-SY5Y; assay: Cell death caused by hydrogen peroxide in cultured cells, MTT assay; type: cell-based; details: 1 μM compound for 24 h
Procedure: HT13 represented by formula (6) (provided from a person, Hoshi University), HT19 represented by formula (12) (provided from a person, Hoshi University), and HT20 represented by formula (13) (provided from a person, Hoshi University) at 1 μM each were administered for 24 h, then 250 μM H2O2 was added and treated for 2 h, and the ratio of the cell death was investigated by MTT assay. As control, a control (−) without addition of a compound was used.

[3] = Hydroxyl radical elimination, ESR-spin trapping method using DMPO; details: Fenton reaction, 25 μM FeSO4, 100 μM H2O2; No. 23 at 1, 10 or 100 μM; thiourea 500 mM
Procedure: Hydroxyl radical is the most important neurotoxicity factor in dopamine-induced neurodegeneration. Therefore, to investigate whether a DJ-1 bound compound directly acts on hydroxyl radicals, evaluation was carried out by an electron spin resonance (ESR)-spin trapping method using 5,5-dimethylpyrroline-N-oxide (DMPO).
To 200 μL of a 100-mM phosphate buffer reaction mixture containing 25 μM diethylene-triamine pentaacetic acid, 25 μM FeSO4, 100 μM H2O2, and 112.5 mM DMSO, the 1 μM, 10 μM, or 100 μM DJ-1 compound (No. 23) and 500-mM thiourea were added respectively. For comparison, a phosphate buffer reaction mixture containing dethylene-triamine pentaacetic acid, FeSO4, and DMSO, as well as the phosphate buffer reaction mixture further containing H2O2 were prepared. These drugs and reagents were dissolved in milli-Q water. The reaction mixture was transferred to a flat quartz cuvette, and introduced in X-band JEOL RFR-30b radical analysis system. Hydroxyl radicals generated from Fenton reaction between Fe^2+ and H2O2 are trapped by DMPO. From 1 min after addition of DMPO, stable DMPO—OH adducts were measured. Signal of Mn^2+ was used as the internal standard signal, […]

[4] = system: human dopamine-producing cell SH-SY5Y; assay: Active oxygen species caused by 6-OHDA, fluorescent probe DCFA-DA; type: cell-based; details: 1 μM compound for 20 h, 40 μm 6-OHDA for 10 min, compared to dopamine
Procedure: Subsequently, the active oxygen species was measured by a fluorescent spectrophotometer.

## COc1cc(C(=O)Nc2ccc(-c3cn4cccc(C)c4n3)cc2)cc(OC)c1OC [No. 23]
[1]; 1 μM compound
  toxicity for cultured cells: did not exert toxicity
[1]; 1 μM compound for 20 h, then 50 μM 6-OHDA for 24 h or 125 μM 6-OHDA for 1 h, MTT
  cell death caused by 6-OHDA (FIGS. 8 and 9): significantly suppresses the cell death
[2]; then 250 μM H2O2 for 2 h, SH-SY5Y, MTT
  cell death compared to the control (FIG. 1): suppressed
[2]; then various concentrations of H2O2 for 2 h, up to the high H2O2 concentration of 500 μM, controls showed increase of cell death from 150 μM
  cell death for different concentrations of hydrogen peroxide (FIG. 2): significantly suppressed cell death
[3]
  DMPO-OH adduct ESR signals (FIGS. 13 and 14): a decrease in peaks was not observed
[4]
  production of active oxygen species caused by 6-OHDA (FIG. 10): significantly suppresses the production of active oxygen species
